Where “and” joins values, the source holds several entries; their conditions need not be identical. Equal entries are not always repeated. The campaign covered roughly 71,000 compounds. About 1,800 (2.5%) were called active. The shares of active, inactive and inconclusive entries below differ from those in the screen. Calls follow the shape of the dose curve; as a rule, active = well fitted activation curve with a large enough effect in the signal ratio, with a control signal flat (not every such curve was filed as active); inconclusive = small, poorly fitted or top-dose-only effect, or effect the other way, or a change in a side signal; inactive = flat fitted curve, though single readings scatter; the % refers to the signal ratio. Where the call is inconclusive, the potency comes from a doubtful curve fit.
Assay: Cell signaling CRE-BLA (Fsk stim); as to activity change, negative = inhibition: % of control where 0% means no effect
Details: CHO CRE-bla reporter (cAMP response element driving beta-lactamase), forskolin EC10, beta-lactamase ratio; activity change, negative = inhibition: at 38.2 µM (top of the series) unless noted
Summary of the method: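 CRE-bla CHO cells stimulated with EC10 NKH 477 (water-soluble forskolin) and compound titrations, 3 h at 37C; beta-lactamase read with CCF4 after 2 h at room temperature. Activity from 460/530 nm emission ratio, AC50 values for positive or negative modulation.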
Potency is read from the fitted curve at half-maximal effect; tags tell the direction and shape of the fitted curve.

| SMILES | Potency | activity change, negative = inhibition |
| --- | --- | --- |
| CC(C)(C)c1cnnn1-c1ccc(NC(=O)c2ccc3c(c2)OCO3)cc1 | inconclusive: 20 µM [rising, single point] |  |
| CC1CCc2c(sc3nc(C4CC4)nc(SCC(=O)NCc4ccco4)c23)C1 (centres undefined) |  | inactive: -0.684% |
| COc1ccccc1N1CCN(Cc2cc(Br)c(O)c3ncccc23)CC1 |  | inconclusive: -18.1% |
| CCCCc1ccc(C2C(C#N)=C(N)SC(N)=C2C#N)s1 |  | inactive: 18.2% [at 7.6 µM] |
| CC#C[C@@]1(O)CC[C@H]2[C@@H]3CCC4=CC(=O)CCC4=C3[C@H](c3ccc(N(C)C)cc3)C[C@]21C |  | inactive: 0.288% [at 17.1 µM] |
| C=CCn1c(Br)nc2c1c(=O)[nH]c(=O)n2C |  | inconclusive: 22.6% |
| CCCc1nc2ccccc2c2nc(N)nn12 | inconclusive: 10 µM [rising, partial curve] |  |
| COc1ccc(CCNC(=O)CCN2C(=O)COc3ccc(C)cc32)cc1OC | inconclusive: 5.01 µM [rising, single point] |  |
| O=C(c1csc2c1CCCC2)N1CCN(c2ccccc2)CC1 |  | inconclusive: -25.6% |
| Cc1cc(C)cc(NS(=O)(=O)c2ccc3[nH]cc(C(=O)NCc4ccco4)c(=O)c3c2)c1 | inconclusive: 0.0501 µM [falling, full curve] |  |
| CN(c1ccccc1)S(=O)(=O)c1cc(C(=O)N2CCN(c3ccccn3)CC2)ccc1Cl |  | inconclusive: 10.4% |
| O=c1c(-c2ccccc2)nc2cnc(N3CCNCC3)nc2n1Cc1ccc(F)cc1 | inconclusive: 0.398 µM [rising, full curve] |  |
| Cc1ccc(-c2cc(C(=O)Nc3cc(C)on3)c3ccccc3n2)c(C)c1 |  | inactive: -1.92% |
| COc1ccc(Oc2ncc3nc(-c4ccc(OC)cc4)c(=O)n(C)c3n2)cc1 | inconclusive: 15.8 µM [rising, single point] |  |
| CCOC(=O)N1CCN(CC(=O)Nc2c(C(=O)OC)[nH]c3ccccc23)CC1 |  | inactive: 3.5% |
| Cc1cc(C)c(NC(=O)c2cc3c(nc4sccn43)s2)c(C)c1 |  | inconclusive: 20.7% |
| COc1ccc(CCN(C)CCc2ccc(OC)c(OC)c2)cc1OC |  | inconclusive: -6.78% and inconclusive: -9.11% |
| Cc1ccccc1-c1nc(CN2CCC(C(=O)NCc3ccco3)CC2)c(C)o1 |  | inconclusive: 11.4% |
| COc1ccc(C)cc1NC(=O)c1nnn(Cc2cc(C)ccc2C)c1N |  | inconclusive: 17.7% |
| Cc1nc(N2CCOCC2)c2nc(-c3ccccc3)n(CCCN(C)C)c2n1 |  | inactive: 4.83% |

| SMILES | Potency | activity change, negative = inhibition |
| --- | --- | --- |
| CCc1ccc(S(=O)(=O)c2n[nH]n3c2nc(=O)c2ccccc23)cc1 | inconclusive: 12.6 µM [rising, partial curve] |  |
| COCCn1c(=O)c(-c2cccs2)nc2cnc(Oc3ccccc3)nc21 | inconclusive: 7.94 µM [rising, partial curve] |  |
| CC(C)(C)Nc1c(N)c(=O)oc2ccccc12 | inconclusive: 0.0251 µM [rising, full curve, poor fit] |  |
| Cc1cccc(NC(=O)CSc2nnc(-c3cc(C)n(-c4ccccc4)c3C)o2)c1C | inconclusive: 5.01 µM [falling, single point] |  |
| COc1cc(OC)cc(C(=O)N(Cc2cc3cc(C)ccc3[nH]c2=O)C(C)C)c1 |  | inactive: -2.99% |
| Cc1nn2c(=O)c(NC(=O)c3ccc(F)cc3)cnc2s1 |  | inactive: 3.52% |
| CCn1c(=S)sc2nc(C)sc21 | inconclusive: 20 µM [rising, single point] |  |
| CC(C)OCCCNC(=O)CCc1nc(-c2ccccc2)no1 |  | inactive: -10.6% |
| OC(CCN1CCOCC1)(c1ccc(Cl)cc1)C1CCCCC1 (centres undefined) |  | inconclusive: -12.3% |
| CCOC(=O)c1c(C)[nH]c(C(=O)COC(=O)c2cnc(C)cn2)c1C | inconclusive: 20 µM [rising, single point] |  |
| CC(C)Oc1cccc(-n2c(CCc3c[nH]c4ccc(Br)cc34)nc3ccccc3c2=O)c1 |  | inconclusive: 13.9% |
| Cc1cccc(NC(=O)C2CCCN(S(=O)(=O)c3cccc4cccnc34)C2)c1 (centres undefined) |  | inconclusive: -21.4% |
| O=C(Cn1c(=O)n(CCC(=O)N2CCc3ccccc3C2)c(=O)c2ccccc21)NCC1CCCO1 (centres undefined) |  | inconclusive: -4.97% |
| CCc1nc(SCC(=O)Nc2nccs2)c2oc3ccccc3c2n1 | active: 1.26 µM |  |
| CCCc1[nH]nc2c1C1(C(=O)N(C(C)C)c3ccccc31)C(C#N)=C(N)O2 (centres undefined) |  | inactive: 2.07% |
| Cc1ccc(NC(=O)NC(=O)CN2C(=O)NC3(CCc4ccccc43)C2=O)c(C)c1 (centres undefined) | inconclusive: 5.01 µM [falling, single point] |  |
| CCOc1cc(NC(=O)c2ccco2)c(OCC)cc1NC(=O)c1cc(OC)c(OC)c(OC)c1 | inconclusive: 1.58 µM [rising, partial curve] |  |
| Cn1c(=O)c2c(-c3ccncc3)c3c(nc2n(C)c1=O)-c1ccccc1C3=O |  | inactive: 12.8% |
| CCn1cc(C(=O)NCC2CCCO2)c2cc(OC)c(OC)cc2c1=O (centres undefined) | inconclusive: 5.01 µM [rising, partial curve] |  |
